The values that follow come from the BET-seq Pho4 binding data (Le et al. 2018).

Some of the results follow. The energies were worked out here from pooled read counts, against the library average; single values are noisy.

This assay has as its target T1, Pho4 (S. cerevisiae) (UniProt P07270).
T1 sequence: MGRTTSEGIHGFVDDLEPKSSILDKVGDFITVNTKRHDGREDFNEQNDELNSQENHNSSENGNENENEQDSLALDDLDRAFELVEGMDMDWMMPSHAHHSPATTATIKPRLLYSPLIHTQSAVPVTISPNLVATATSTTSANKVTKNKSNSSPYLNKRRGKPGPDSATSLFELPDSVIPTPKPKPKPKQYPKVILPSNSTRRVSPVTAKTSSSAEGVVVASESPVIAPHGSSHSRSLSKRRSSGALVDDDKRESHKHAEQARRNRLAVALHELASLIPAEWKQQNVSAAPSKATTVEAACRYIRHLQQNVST
Nature of the assay: relative binding free energy (BET-seq); higher = weaker binding. The settings on record: reference: library average.
Consider CGAGACACGTGTTGTA, for which the “relative binding free energy” value came out at 0.12 kcal/mol. Regarding GGGGTCACGTGGGCAG, the “relative binding free energy” value was 0.1 kcal/mol.

On to ATGTTCACGTGTTTGC, for which the “relative binding free energy” value turned out to be 0.13 kcal/mol.

As for TTTATCACGTGACAGT, the “relative binding free energy” value came out at 0.19 kcal/mol. Turning to TTTAGCACGTGGTATG, the “relative binding free energy” value is -0.17 kcal/mol. The value for GCGAGCACGTGTATGT was -0.02 kcal/mol; that for GATGTCACGTGGGGAG was -0.01 kcal/mol; that for GGAGGCACGTGGCAGT was -0.1 kcal/mol. As for TATGGCACGTGTTAAT, the figure is -0.02 kcal/mol; as for TGATGCACGTGTGCGT, -0.04 kcal/mol. The value for TGATGCACGTGACTGT was -0.01 kcal/mol. Consider ACTGTCACGTGAGAGT, for which the “relative binding free energy” value came out at 0.2 kcal/mol. The value for TGGTCCACGTGTGGAC was 0.26 kcal/mol. Regarding CGTTACACGTGAGTTG, the “relative binding free energy” value was 0.2 kcal/mol. The value for GTTTACACGTGTCGTG was 0.19 kcal/mol; that for AGGTTCACGTGGCATT was 0.11 kcal/mol; that for TGCACCACGTGTGTTT was 0.11 kcal/mol. On to AGTATCACGTGTTTGC, for which the “relative binding free energy” value was -0.02 kcal/mol. As for GCCGGCACGTGGTGTA, the figure is -0.19 kcal/mol. The value for TTTTTCACGTGGGAGA was 0.29 kcal/mol; that for CAGGTCACGTGTCTTG was 0.12 kcal/mol; that for GGTACCACGTGGGTGA was -0.19 kcal/mol. As for ATTGTCACGTGGAATT, the “relative binding free energy” value came out at 0.25 kcal/mol. Consider TGGTTCACGTGAGGAG, for which the “relative binding free energy” value worked out at 0.42 kcal/mol. The value for TTATTCACGTGAGTAG was 0.46 kcal/mol.

Consider TTCAGCACGTGTTGAT, for which the “relative binding free energy” value was 0.11 kcal/mol. As for GTTGACACGTGTCGGG, the figure is 0.1 kcal/mol; as for GAGTGCACGTGGAAGG, 0.11 kcal/mol. On to AGTTGCACGTGTGATT, for which the “relative binding free energy” value was 0.06 kcal/mol. The value for GGTCTCACGTGTTGGT was 0.37 kcal/mol. With GTCAACACGTGGTGGT, the “relative binding free energy” value was found to be 0 kcal/mol. As for ATGATCACGTGTGGGC, the figure is 0.15 kcal/mol; as for GTGGTCACGTGAATAA, 0.33 kcal/mol; as for TGGAGCACGTGTTGTC, -0.16 kcal/mol. As for TGGGGCACGTGTGTCT, the figure is 0.01 kcal/mol; as for GGATTCACGTGTGAAA, 0.46 kcal/mol.

On to CTGGTCACGTGGCTTT, for which the “relative binding free energy” value came to 0.11 kcal/mol. As for TTGCGCACGTGTGTGC, the figure is -0.08 kcal/mol; as for CATTTCACGTGTGGGT, 0.25 kcal/mol; as for TGCTTCACGTGTGTGG, 0.2 kcal/mol. The value for GGGAGCACGTGAAGGG was 0.26 kcal/mol. Turning to TGTAGCACGTGTGCTC, the “relative binding free energy” value worked out at 0.1 kcal/mol. The value for ATTGACACGTGGTAAA was 0.01 kcal/mol; that for TTGATCACGTGCAGTA was 0.08 kcal/mol; that for CGGATCACGTGGGGAG was 0.13 kcal/mol. The value for TTGCGCACGTGAGCGG was 0.09 kcal/mol; that for TTATTCACGTGGTGTT was 0.18 kcal/mol. The value for TTGGACACGTGTAAAT was 0.05 kcal/mol. In the case of TTCAACACGTGCTGGG, the “relative binding free energy” value stood at 0.11 kcal/mol.

For GTCTGCACGTGAGGAT, the “relative binding free energy” value was found to be 0.15 kcal/mol. Turning to GTTACCACGTGGGAGG, the “relative binding free energy” value is -0.11 kcal/mol. As for GGGGCCACGTGGGTTG, the “relative binding free energy” value was -0.26 kcal/mol.

For CAGGGCACGTGCGGGA, the “relative binding free energy” value is -0.11 kcal/mol. With TTAGGCACGTGTATGT, the “relative binding free energy” value was -0.1 kcal/mol.

Take ACTTGCACGTGTGTGA: the “relative binding free energy” value was found to be 0.09 kcal/mol.

As for TTTGCCACGTGAAGGT, the “relative binding free energy” value is 0.03 kcal/mol. As for AGGGACACGTGTAGTG, the “relative binding free energy” value is -0.02 kcal/mol. For TATTTCACGTGCATAG, the “relative binding free energy” value stood at 0.24 kcal/mol. The value for GCATACACGTGTGTTG was 0.13 kcal/mol. TTCCGCACGTGGGGTG: the “relative binding free energy” value is -0.23 kcal/mol. In the case of AAGTACACGTGATGTT, the “relative binding free energy” value was found to be 0.17 kcal/mol. As for GTGGACACGTGGGCGT, the figure is -0.16 kcal/mol; as for GTGGTCACGTGGTGCG, 0.1 kcal/mol; as for GGGCGCACGTGGAGTA, -0.07 kcal/mol. For CTATGCACGTGTTATT, the “relative binding free energy” value turned out to be 0.02 kcal/mol. As for TATGCCACGTGGGTGT, the figure is -0.18 kcal/mol. As for CATGGCACGTGGGTAA, the figure is -0.14 kcal/mol; as for GCGTTCACGTGTGTAG, 0.31 kcal/mol.

As for TTCTTCACGTGCAGTG, the “relative binding free energy” value amounted to 0.21 kcal/mol. Turning to TTAAACACGTGTACGT, the “relative binding free energy” value came to 0.02 kcal/mol. The value for GGCTTCACGTGAGGGT was 0.35 kcal/mol; that for GTGTGCACGTGGTAAA was -0.01 kcal/mol. Consider GGTAACACGTGGGTGG, for which the “relative binding free energy” value is -0.06 kcal/mol. The value for CTGGTCACGTGATTGT was 0.11 kcal/mol.

As to TTAGTCACGTGATGCG, the “relative binding free energy” value was determined as 0.16 kcal/mol.

GAGTGCACGTGTATGG: the “relative binding free energy” value was -0.02 kcal/mol. In the case of TAGGTCACGTGGTAGC, the “relative binding free energy” value amounted to 0.15 kcal/mol. Consider GTGATCACGTGGGTCT, for which the “relative binding free energy” value amounted to 0.14 kcal/mol. Consider TTTCGCACGTGAGGTT, for which the “relative binding free energy” value turned out to be 0.23 kcal/mol. GTTTTCACGTGCAAGG: the “relative binding free energy” value turned out to be 0.24 kcal/mol. The value for GGTAGCACGTGTTAAG was -0.05 kcal/mol; that for ATTTGCACGTGTACGG was 0.05 kcal/mol. The value for AGAGGCACGTGGTTGC was -0.17 kcal/mol; that for TGAGTCACGTGTAATG was 0.16 kcal/mol. On to TGTTTCACGTGTTAGA, for which the “relative binding free energy” value came out at 0.44 kcal/mol. For the sequence TGCAACACGTGGTTTT, the “relative binding free energy” value was -0.02 kcal/mol. As for GCGGTCACGTGTTATG, the figure is 0.11 kcal/mol. In the case of GGATGCACGTGAGGAG, the “relative binding free energy” value is 0.29 kcal/mol. The value for TGCGCCACGTGAGGTG was 0 kcal/mol; that for GAGGACACGTGAGGAG was 0.42 kcal/mol.

Take AATTGCACGTGCAGTT: the “relative binding free energy” value is -0.02 kcal/mol. In the case of GGTATCACGTGGAGTG, the “relative binding free energy” value was 0.17 kcal/mol. As for GGTCTCACGTGTAGAT, the figure is 0.45 kcal/mol. GGGGTCACGTGAGGTG: the “relative binding free energy” value amounted to 0.39 kcal/mol. As for GATAGCACGTGTAATT, the figure is 0.1 kcal/mol; as for GTGTACACGTGATTGT, 0.11 kcal/mol; as for GGGGGCACGTGAGCGT, 0.07 kcal/mol. For GTAGTCACGTGTATTA, the “relative binding free energy” value was found to be 0.09 kcal/mol. As for TACGTCACGTGGTGTG, the figure is -0.05 kcal/mol; as for TGGCTCACGTGGTCAG, 0.03 kcal/mol; as for GCTTTCACGTGTTTGA, 0.39 kcal/mol. The value for CTTTTCACGTGATTGC was 0.37 kcal/mol; that for AGTGACACGTGGTAGG was -0.03 kcal/mol; that for TGGTGCACGTGAGGGG was 0.16 kcal/mol. Turning to ATGATCACGTGGAGGT, the “relative binding free energy” value is -0.04 kcal/mol. Consider GGGTTCACGTGGCGTA, for which the “relative binding free energy” value turned out to be 0.29 kcal/mol. The value for GTGTTCACGTGAAGTG was 0.38 kcal/mol.

On to TTTATCACGTGTTCGT, for which the “relative binding free energy” value came to 0.17 kcal/mol. Turning to AGATTCACGTGGCTGA, the “relative binding free energy” value is 0.24 kcal/mol. In the case of GGATACACGTGGGACG, the “relative binding free energy” value worked out at 0.02 kcal/mol. For the sequence GTGGTCACGTGGTCGA, the “relative binding free energy” value is -0.02 kcal/mol. As for GTAATCACGTGGTAGT, the figure is 0.11 kcal/mol; as for TGTCGCACGTGGCAAG, -0.07 kcal/mol. As to GCTTCCACGTGTGGGT, the “relative binding free energy” value turned out to be 0.33 kcal/mol. For CAGGTCACGTGGGTGC, the “relative binding free energy” value is -0.05 kcal/mol.
